# Experimental data reported in PubChem BioAssay.
# This list was built around the results that the source calls inconclusive (neither active nor inactive); the mix of calls is not that of the screen. The source made the active and inactive calls.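 How the source made its calls: active means cell viability at or below a set limit in both duplicate runs, the limit being the all-compound median minus 4 SD (cut at about 23% in these data, passing the limit was not always enough); inconclusive means no clear call, values can overlap the other calls; inactive means the rest.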
# Test: viability of HCT116 without oncogenic beta-catenin – human colon tumor cells, pilot screen (AID 823);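 further: 0% = wells killed by 20 µM Hyamine and 100% = untreated DMSO cell wells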
# Conditions: HCT116 beta-catenin knockout viability, CellTiter-Glo, 60 h; at 10 µM; active compounds read low
row,Compound,viability
1,COC(=O)C1(C(F)(F)F)N=C2Sc3ccccc3N2C(N2CCOCC2)=N1 (centres undefined),inconclusive: 21.1%
2,C=C(C)Cn1c(CCCNC(=O)CC)nc2ccccc21,inconclusive: 103%
3,CCCCNc1ncnc2c1cnn2-c1ccccc1,inconclusive: 23.5%
4,CC1=C(C#N)C(c2cccnc2)C2=C(CC(C)(C)CC2=O)N1 (centres undefined),inactive: 94.2%
5,CC1(C)CC(=O)C=C(Nc2cc(-c3ccccc3)[nH]n2)C1,inconclusive: 90.7%
6,COc1ccc(N2CCN(CCNC(=O)CCNS(=O)(=O)c3cccs3)CC2)cc1,inconclusive: 90.3%
7,Cc1c(C(=O)O)oc2ccc(S(=O)(=O)N3CCCCC3C(=O)O)cc12 (centres undefined),inactive: 97.1%
8,c1csc(CNc2ncnc3sccc23)c1,inconclusive: 53.4%
9,CN(C)c1ccc(C(=O)Nc2ccc(S(=O)(=O)NC3=NCCCCC3)cc2)cc1,inconclusive: 102%
10,COc1ccc(CNC(=O)CSc2nnnn2-c2ccc(O)cc2)cc1,inconclusive: 108%
11,Cn1c(=O)c2cc(NCc3ccccc3)nnc2n(C)c1=O,inactive: 67.5%
12,Cc1onc(-c2ccccc2)c1C(=O)Nc1ccc2c(C)cc(=O)oc2c1,inconclusive: 94.1%
13,CCCCCn1c(CNC(C)=O)nc2ccccc21,inactive: 93.5%
14,Cn1c(=O)oc2cc(S(=O)(=O)N3CCCC(C(=O)NCc4ccc5c(c4)OCO5)C3)ccc21 (centres undefined),inconclusive: 26.5%
15,CCOCCCNC(=O)C(c1ccc(Cl)cc1)N1CCC2(CC1)OCCO2 (centres undefined),inconclusive: 91.2%
16,CC(C)(Oc1ccc(Cl)cc1)C(=O)OCC(=O)N1CCCC1,inconclusive: 92.2%
17,CCOC(=O)C(C(=O)Nc1cccc(C)n1)C1CCCCC1 (centres undefined),inconclusive: 91.8%
18,O=C(COc1ccccc1)NCCSc1ccccc1,inconclusive: 93%
19,Cc1ccc(C2CC(c3ccc(C)cc3)n3nc(N)nc3N2)cc1 (centres undefined),inactive: 96.7%
20,COc1ccc(S(=O)(=O)Nc2ccc(S(=O)(=O)N3CCOCC3)cc2)cc1,inconclusive: 106%

row,Compound,viability
1,CCOC(=O)N1CCN(C(=O)C(CC(C)C)NC(=O)C2CCCCC2)CC1 (centres undefined),inconclusive: 94.1%
2,COc1cc(NC(=O)C2CC2)c(C(=O)O)cc1OC,inconclusive: 95.4%
3,COc1cc2[nH]c(=O)n(CCCC(=O)N3CC=C(c4ccccc4)CC3)c(=O)c2cc1OC,inconclusive: 83%
4,c1ccc(CSc2nnc3c(n2)OC(c2ccco2)Nc2ccccc2-3)cc1 (centres undefined),inconclusive: 87.1%
5,COc1cc(S(=O)(=O)N2CCCCCC2)c(OC)cc1Br,inconclusive: 78.6%
6,CC(C)CC(NC(=O)C1CCC(C)CC1)C(=O)Nc1cccnc1 (centres undefined),inconclusive: 95%
7,CSc1nnc(Cn2c(=O)sc3ccccc32)n1-c1ccccc1,inactive: 104%
8,CCN1CCN(C(c2cccs2)C(C)NC(=O)C(C)C)CC1 (centres undefined),inactive: 98%
9,O=C1C=C(NCc2ccco2)CC(c2ccc(Cl)cc2)C1 (centres undefined),inconclusive: 78%
10,COc1ccc(C2C(C(=O)c3cccs3)=C(O)C(=O)N2c2nncs2)cc1 (centres undefined),inconclusive: 109%
11,COC(=O)c1cccc(NC(=O)C(C)N2C(=O)c3ccccc3C2=O)c1 (centres undefined),inactive: 93.4%
12,O=C(NCc1ccco1)c1ccc(CN2CCOCC2)cc1,inconclusive: 101%
13,CS(=O)(=O)N(CC(=O)N1CCN(c2ccccc2F)CC1)c1cc(C(F)(F)F)ccc1Cl,inconclusive: 80.5%
14,COc1cc2c(C(=O)N3CCN(Cc4ccc5c(c4)OCO5)CC3)cn(C)c(=O)c2cc1OC,inconclusive: 81.8%
15,Cc1ccc(N(C(=O)C2CCC(=O)N2)C2(C(=O)NC3CCCCC3)CCCCC2)cc1 (centres undefined),inconclusive: 95.4%
16,Cc1ccc(N(CC(=O)NC2CC3CCC2C3)S(C)(=O)=O)cc1C (centres undefined),inconclusive: 105%
17,Cc1cc(C)n2c(SCC(=O)Nc3cc(C)on3)nnc2n1,inactive: 102%
18,O=C(CSc1nnc(C2COc3ccccc3O2)o1)N1CCCCC1 (centres undefined),inactive: 98.7%
19,Cc1c(-c2ccco2)[n+](=O)c2c(n1[O-])CCCCC2,inconclusive: 98.7%
